Reference: PubChem BioAssay AID504466 (National Center for Advancing Translational Sciences (NCATS), 2011)
The whole screen tested about 330,000 compounds, of which about 4,200 (1.3%) were called active. The inconclusive results got no clear call from the source; some entries with a clear call stand among them for comparison. Calls come from the whole dose curve; as a rule, active = well fitted activation curve with a large enough effect; inconclusive = small, poorly fitted or top-dose-only effect; inactive = no such curve, though single readings can be large or run the other way. Where the call is inconclusive, the potency comes from a doubtful curve fit.

assay: qHTS screen for small molecules that induce genotoxicity in human embryonic kidney (HEK293T) cells expressing luciferase-tagged ELG1; details: HEK293T ELG1-luciferase reporter, luminescence, 16 h; series mostly up to 46 µM; activity change, positive = activation: at the top concentration; note: nearly all actives have a fitted effect of over 60% in size; for activity change, positive = activation: % of control where 0% means no effect
Summary of the method: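 Genotoxicity was scored as increased ELG1-luciferase reporter signal, measured by ONE-Glo luminescence (30 min, room temperature). Compound or vehicle exposure of the HEK293T reporter cells lasted 16 hr at 37°C.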
Potency is the fitted concentration of half-maximal effect; tags give direction and shape of the fitted curve.

Row | SMILES | Potency | activity change, positive = activation
1 | CCn1c(C)nc2cc(C(=O)N/N=C/c3ccccc3)ccc21 | active: 9.2 µM | 
2 | O=C(COc1ccccc1)NC1CCSc2ccccc21 (centres undefined) |  | inactive: 3.82%
3 | O=C(CCSc1ccccc1)N1CCCC1 | inconclusive: 8.2 µM [activator, partial curve] | 
4 | CCOC(=O)c1c(N)sc2c1CCC(CC)C2 (centres undefined) |  | inactive: 8.2%
5 | c1ccc(CSCc2cn3ccsc3n2)cc1 | active: 16.4 µM | 
6 | COc1ccc(-c2nc(CN3CCN(C(=O)c4ccco4)CC3)c(C)o2)c(OC)c1C |  | inactive: -7.72%
7 | O=C(CSc1nnc(NC(=O)c2ccco2)s1)NC1CCCC1 |  | inactive: 0.974%
8 | Cc1ccc2nc(-c3ccc(N4C(=O)CC(N5CCN(CCO)CC5)C4=O)cc3)sc2c1 (centres undefined) | inconclusive: 18.4 µM [activator, single point] | 
9 | Cc1ccn2cc(-c3cccc(NS(C)(=O)=O)c3)nc2c1 | inconclusive: 5.8 µM [activator, full curve, poor fit] | 
10 | CCOc1ccc(NS(=O)(=O)c2ccc3[nH]cc(C(=O)N(CC)CC)c(=O)c3c2)cc1 | inconclusive: 1.84 µM [activator, partial curve] | 
11 | CC/C(=N\Nc1nncc2ccccc12)c1ccc(F)cc1 | active: 16.4 µM | 
12 | Cc1cnc(NC(=O)c2cc3c(s2)CCCC3)s1 | inconclusive: 0.316 µM [activator, full curve, poor fit] | 
13 | COc1ccc(/C=N/NC(=O)c2[nH]ncc2Br)c(OC)c1 | active: 25.9 µM | 
14 | CC(=O)NC(=S)Nc1ccc(NC(=O)COc2ccc(C(C)C)cc2)cc1 |  | inactive: -1.78%
15 | Brc1ccc(C2CC(c3ccccc3)=Nc3ccccc3N2)cc1 (centres undefined) | inconclusive: 18.4 µM [activator, single point] | 
16 | CN(CC(=O)Nc1cccc(F)c1)C(=O)c1cc(-c2ccco2)nc2ccccc12 |  | inactive: -24.2%
17 | O=C(COc1ccccc1Cl)NCc1ccco1 | inconclusive: 18.4 µM [activator, partial curve] | 
18 | N=c1n(CCCOc2ccccc2Cl)c2ccccc2n1CC(N)=O | inconclusive: 29.1 µM [activator, single point] | 
19 | Clc1ccc(C2=Nc3cc(Cl)ccc3OC2)cc1 | inconclusive: 16.4 µM [activator, partial curve] | 
20 | Cc1csc(NC(=O)c2cc(C)on2)n1 | inconclusive: 16.4 µM [activator, partial curve] | 
21 | Cc1nnc(NC(=O)c2ccccc2F)s1 | inconclusive: 20.6 µM [activator, single point] | 
22 | O=[N+]([O-])c1nn(-c2ccc3c(c2)OCCO3)n(O)c1=NCCC1=CCCCC1 | inconclusive: 18.3 µM [activator, partial curve] | 
23 | COc1ccc(/C=C/c2ccc3c(Br)ccc(O)c3n2)cc1 | inconclusive: 23.1 µM [activator, partial curve, poor fit] | 
24 | Cc1ccc2nc(-c3ccc(NC(=O)COC(=O)c4ccc(Br)o4)cc3)sc2c1 | active: 1.16 µM | 
25 | Cc1cc(OCCN2CCOCC2)ccc1Cl | inconclusive: 20.6 µM [activator, partial curve, poor fit] | 

Row | SMILES | Potency | activity change, positive = activation
26 | O=C1c2cccnc2C(Nc2ccc(Br)cc2Br)N1Cc1cccs1 (centres undefined) | inconclusive: 20.6 µM [activator, partial curve, poor fit] | 
27 | COC(=O)c1c(NC(=O)/C=C/c2ccc3c(c2)OCO3)sc(C)c1C | inconclusive: 23.1 µM [activator, partial curve, poor fit] | 
28 | COC(=O)N(C)c1nc2ccccc2s1 | inconclusive: 16.4 µM [activator, single point] | 
29 | CCN(CC)S(=O)(=O)c1cccc(NC(=O)COC(=O)c2cc(C)oc2C)c1 |  | inactive: -8.38%
30 | Cc1cc(C(=O)COC(=O)c2ccc(F)cc2F)c(C)n1C1CC1 | inconclusive: 10.3 µM [activator, partial curve] | 
31 | C=CCOc1ccc(/C=C/C(=O)OCC(=O)NCc2cccs2)cc1 | inconclusive: 23.1 µM [activator, single point] | 
32 | Cn1ccnc1SCC(=O)Nc1ccc2ccccc2c1 | active: 1.3 µM | 
33 | C[C@H](NS(=O)(=O)c1ccc(Cl)cc1)C(=O)OCC(=O)NC(=O)Nc1ccc2c(c1)OCCO2 | inconclusive: 16.4 µM [activator, single point] | 
34 | O=c1[nH]cnc2cc(-c3ccc(Br)cc3)sc12 | inconclusive: 16.4 µM [activator, partial curve] | 
35 | CN=c1scc(C)n1/N=C/c1ccc(O)cc1O | inconclusive: 0.731 µM [activator, full curve] | 
36 | COc1cc2c(cc1OC)-c1cc(Nc3ccccc3C)nc(=O)n1CC2 | inconclusive: 25.9 µM [activator, partial curve, poor fit] | 
37 | Cc1ccc(C)c(N2CCN(C(=O)CCS(=O)(=O)c3ccc4c(c3)NC(=O)C(C)S4)CC2)c1 (centres undefined) |  | inactive: -12.9%
38 | O=C(/C=C/c1ccc([N+](=O)[O-])cc1)Nc1cccnc1 | inconclusive: 7.31 µM [activator, partial curve] | 
39 | Cc1cccn2c(=O)c3cc(C(N)=S)c(=N)n(CCCN4CCOCC4)c3nc12 |  | inactive: 0.681%
40 | Cc1ccccc1NC(=O)c1ccccn1 |  | inactive: 10.5%
41 | COc1ccc([C@H]2C(C#N)=C([S-])N[C@](C)(O)[C@@H]2[n+]2ccccc2)cc1 |  | inactive: 1.52%
42 | CCN(CC)c1ccc(NC(=O)c2ccccc2F)cc1 | inconclusive: 1.3 µM [activator, full curve] | 
43 | CC1CCCC(C)N1C(=O)COC(=O)c1ccco1 (centres undefined) |  | inactive: 2.23%
44 | O=C(CN1C(=O)NC2(CCCCC2)C1=O)Nc1cc(C(F)(F)F)ccc1N1CCOCC1 |  | inactive: 1.57%
45 | CC(=O)C1=C(O)C(=O)N(c2ccc(Br)cc2)C1c1cccc([N+](=O)[O-])c1 (centres undefined) |  | inactive: 4.64%
46 | CCCn1nnc(NC(=O)COc2ccccc2Cl)n1 | inconclusive: 20.6 µM [activator, single point] | 
47 | Cc1cnc(C(=O)OCC(=O)Nc2cc(Cl)ccc2C#N)cn1 |  | inactive: -0.984%
48 | Cc1ccc2sc(-c3ccc(NC(=O)/C=C\C(=O)O)cc3)nc2c1 | inconclusive: 1.3 µM [activator, partial curve] | 
49 | Clc1cc(Cl)c2nc(N3CCOCC3)sc2c1 | inconclusive: 18.4 µM [activator, partial curve, poor fit] | 
